According to PubChem BioAssay AID1508624 (National Center for Advancing Translational Sciences (NCATS), 2021):
Screen size: about 48,000 compounds; about 120 (0.25%) were called active. Roughly 4% stayed inconclusive and do not appear here. The call rests on the fitted dose curve; in most records, active means well fitted activation curve with a large enough effect; inconclusive means small, poorly fitted or top-dose-only effect, or another doubt; inactive means no such curve, though single readings can be large or run the other way. The list shows a part of the results.

assay: Primary qHTS for Identification of Small Molecule Activators of Huntingtin-Antisense Promoter Activity; conditions: HEK293 HTT-AS promoter firefly luciferase reporter (activity 0% = vehicle and -100% = no light), 24 h; series mostly up to 57.5 µM; activity change, positive = activation: at the top concentration; further: nearly all actives have a fitted effect of over 55% in size
In short: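 Firefly luciferase signal from promoter-reporter HEK293 cells was scaled between vehicle (0%) and zero RLU (-100%). Compounds were tested at final concentrations of up to 57.5 uM over 24 h at 37 degrees C. PTC124 at 50 uM final served as control inhibitor.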

Activity change, positive = activation, inactive:
Cc1csc2nc(COC(=O)c3ccccc3NC(=O)COc3ccccc3F)cc(=O)n12 -35.8%
CCOc1ccc(NC(=O)CC2C(=O)N(c3ccccc3)C(=O)N2C2CCCCC2)cc1 (configuration not stated) 0%
O=c1c2cn[nH]c2nc(SCc2cccc(Br)c2)n1-c1ccc(Cl)cc1 -31.5%
COc1ccccc1CNC(=O)NCc1noc2ccc(C)cc12 -15.3%
COc1ccc(CNC(=O)c2nc(SC(C)C)ncc2Cl)cc1 10.7%
CCOC(=O)c1c(-c2ccccc2)csc1NC(=O)c1cc(-c2ccc(Br)cc2)on1 -4.78%
Cc1nc2ccc(S(=O)(=O)CCC(=O)Nc3ccc(C)c(C)c3)cc2s1 -21.2%
COCCCNC(=O)c1sc2nc3n(c(=O)c2c1C)CCC3 13%
CCOc1ccc(CCNC(=O)CCc2c(C)nc3c(-c4ccccc4)c(C)nn3c2C)cc1OCC -0.283%
COc1cc2c(cc1OC)C(COc1ccc3c(C)cc(=O)oc3c1)N(C(=O)C(C)C)CC2 (configuration not stated) -23.5%
CCOC(=O)c1nc(Nc2ccc(C(C)=O)cc2)c2ccccc2n1 -11.9%
O=C(Nc1c(C(=O)Nc2ccc(F)cc2)oc2ccccc12)c1cc2ccccc2o1 23.7%
Cn1ccc2cc3c(cc21)CCN3C(=O)Nc1cccnc1 16.2%
COc1ccc(Cn2c(=O)c3cccnc3n(CC(=O)Nc3ccc(C)c(F)c3)c2=O)cc1 -19.2%
Cc1cccc(-n2ccnc2SCC(=O)Nc2ccc(F)cc2F)c1C -37%
Cc1cc(Oc2c(C(F)(F)F)oc3c(CN4CCC(C)CC4)c(O)ccc3c2=O)cc(C)c1Cl -8.9%
O=C(Cn1c(=O)oc2cc(S(=O)(=O)N3CCCCCC3)ccc21)NCc1ccccc1Cl -54.5%
Cc1ccc(C)c(CN2CCC(CNC(=O)Nc3ccc(Br)cc3F)CC2)c1 -37.4%
Cc1ccc(C)c(CNC(=O)c2ccc3c(c2)nc2n3CCCCC2)c1 3.31%
C=CCc1cccc(C=NNC(=O)CN2CCN(Cc3ccccc3)CC2)c1O -24.6%
COc1ccc(-c2c3c(=O)n(C)c(=O)n(C)c3c3c(-c4cccc(C)c4)nc4ccccc4n23)cc1 -27.4%
COc1ccc(S(=O)(=O)NCCCO)cc1-c1nnc2c3ccccc3c(C)nn12 2.55%
CCOc1ccc(NC(=O)Cn2cc(C(=O)c3ccc(CC)cc3)c(=O)c3cc(OC)c(OC)cc32)cc1 -5.2%
COc1ccc(NS(=O)(=O)c2ccc3c(c2)CCN3C(=O)CCC(=O)O)cc1Cl -4.49%
COc1ccc2cc3cc(C(=O)N4CCN(c5cccc(Cl)c5)CC4)sc3nc2c1 2.99%
CCc1ccc(-n2c(=O)c3sc4ccccc4c3n(CC(=O)NC3CCCCC3)c2=O)cc1 -4.78%
Cc1ccc(NC(=O)Cn2nc(-c3ccncc3)ccc2=O)cc1Cl -10.3%
CCOC(=O)c1ccc2c(c1)N(C(CC)C(=O)Nc1ccccc1OC)C(=O)c1ccccc1S2 (configuration not stated) -25%
CC(C)CCNC(=O)CSc1nc2ccccc2nc1Cc1ccccc1 -9.45%
Cc1cc(NC(=O)CCS(=O)(=O)c2cc(Br)cc3c2N(C(=O)C2CC2)CC3)ccc1Br -17.8%
CCOc1ccccc1CNC(=O)c1cc2n(n1)CCCN(Cc1ccc(C)cc1)C2=O -22.6%
CCOc1ccc(NC(=O)CSc2nc(C)c(C(=O)Nc3ccccc3)c(-c3ccc(Cl)cc3)c2C#N)cc1 8.09%
CCc1cccc(-n2c(C)nc3c(cnn3-c3ccc(C)c(C)c3)c2=O)c1 -6.91%
O=C(Nc1ccc(OC(F)(F)F)cc1)c1nc2ccccc2nc1N1CCCCC1 -6.19%
CCn1c2ccccc2c2cc(CN3CCN(Cc4ccccc4Cl)CC3)ccc21 -18.4%
COc1cccc(NC(=O)CSc2nc3cc(OC)c(OC)cc3c3nc(-c4ccccc4)nn23)c1 0.989%
CC(=O)Nc1ccc(S(=O)(=O)Nc2cc(C)on2)cc1 -0.0382%
COc1cc(OC)c(NC2(c3ccccc3)C(=O)c3ccccc3C2=O)cc1Cl -9.05%
C[C@H](NC(=O)OC(C)(C)C)c1nnc(SCc2c(F)cccc2Cl)o1 -23.9%
CCc1ccc(NC(=O)Cn2nc3c4ccccc4n(Cc4ccccc4)cc-3c2=O)cc1 -7.19%
O=C(O)CP(=O)(O)O 2.46%
O=C(c1ccc(CSc2nc3ccncc3n2Cc2ccc(F)cc2)cc1)N1CCCCCC1 -17.6%
COCCCNC(=O)c1cc2c(=O)oc3ccc(C)cc3c2s1 -17.9%
CCc1nc2ccc(C(=O)N3CCN(c4cccc(C)c4C)CC3)cc2nc1CC 10.8%
CCOc1ccc(-c2cc(OC(=O)c3ccc(OC)cc3)c3c(C)oc(C)c3c(=O)c2)cc1 -13.5%
CCOc1ccc(C(=O)N(Cc2sccc2C)C2CCS(=O)(=O)C2)cc1 (configuration not stated) -17.8%
O=C1CC(c2cccc(O)c2)c2c(nc(SCc3ccccc3F)[nH]c2=O)N1 (configuration not stated) -1.68%
CCC1CN(C(=O)N2CCC(C(=O)Nc3ccccc3F)CC2)c2ccccc2O1 (configuration not stated) -23.4%
CCNC(=O)/C=C/c1cccc(Br)c1 17.8%
CC(C)NCCCC1(C(N)=O)c2ccccc2-c2ccccc21 -12.6%
CCCC(=O)Nc1ccccc1OCc1cc(=O)n2cc(C)ccc2n1 -5.35%
Cc1ccc(CCNC(=O)c2ccc3c(Cl)c4c(nc3c2)CCCC4)cc1 -28%
COc1ccc(NC(=O)CN2C(=O)COc3ccc(S(=O)(=O)N4CCCCCC4)cc32)cc1 -9.52%
Cc1ccc(C)c(N2CCN(c3c(CN4CCCC4)c(=O)oc4ccccc34)CC2)c1 -5.32%
COc1ccccc1CNC(=O)c1ccc2nc(N3CCCCC3)sc2c1 -28.5%
O=C(Nc1cccc(Cl)c1Cl)c1cc(S(=O)(=O)NCc2ccc3c(c2)OCO3)ccc1F -12.6%
Cc1ccc(-n2c(=O)cc(N3CCN(c4ccccc4Cl)CC3)[nH]c2=O)cc1 -19.4%
Cc1ccc(CN2CCCN(CC(=O)Nc3ccc(C)cc3C)S2(=O)=O)cc1 -9.06%
Cc1c(C(=O)Nc2ccc(C(=O)O)cc2)nnn1-c1ccccc1 -90.9%
CSc1ccc(CCNC(=O)Cn2ccc3cc(S(=O)(=O)N4CCCCCC4)ccc32)cc1 -35.6%
O=C(Nc1nc2n(n1)C(c1ccc(F)cc1)C=C(c1ccccc1)N2)c1ccco1 (configuration not stated) -15.1%
O=c1c(-c2cc(-c3ccccc3)nc3c2COc2ccc(Cl)cc2-3)coc2ccc(F)cc12 2.42%
Cc1c(Cl)cccc1NC(=O)c1ccc2c(c1)CCN2S(=O)(=O)c1ccccc1 3.27%
CN(C)CCNc1ncnc2c1cnn2-c1cccc(Cl)c1 15.2%
NC1CCN(c2nc3c(cc2F)c(=O)c(C(=O)O)cn3-c2ccc(F)cc2F)C1 (configuration not stated) 1.88%
CN(C)c1ccc(C(CNC(=O)c2ccccc2C(F)(F)F)N2CCOCC2)cc1 (configuration not stated) 1.27%
COc1ccc(CNC(=O)C2CCCN(S(=O)(=O)c3cccc4nsnc34)C2)cc1 (configuration not stated) -16.9%
Cn1nnnc1SCCCNCc1cc(Cl)ccc1OCc1ccc(F)cc1 -13.9%
COC(=O)c1c(NC(=O)c2nc(SCc3ccc(F)cc3)ncc2Cl)sc2c1CCCC2 0%
Cc1nn2c(=O)cc(COC(=O)Cc3ccccc3)nc2s1 6.73%
Nc1c(C(=O)Nc2ccc(OC(F)(F)F)cc2)sc2nc(-c3ccncc3)ccc12 -45.6%
CCOc1ccccc1-c1noc(CSc2nnc(-c3ccccc3)n2-c2ccc(F)cc2)n1 -29.1%
CCCCN(CC)CCCNC(=O)c1cc2c(=O)[nH]c3ccccc3c2n1C -9.87%
COc1ccc(NC(=O)CCCSc2nc(-c3ccco3)cc(C(F)(F)F)n2)cc1OC -13.2%
CCc1ccc(-c2cn3c(n2)sc2cc(C(=O)NC4CCCCC4)ccc23)cc1 1.59%
COc1cccc(-c2nc(S(=O)(=O)c3ccc(Cl)cc3)c(NCc3ccccc3)o2)c1 -17.7%
CC(=O)Nc1ccc(NS(=O)(=O)c2c(C(=O)N3CCC(C)CC3)c(C)n(C)c2C)cc1 -17.2%
COc1ccc2oc(=O)c(C(=O)NCCc3c(C)[nH]c4ccc(F)cc34)cc2c1 -30%
COCCNc1oc(-c2ccccc2)nc1S(=O)(=O)c1ccc(Br)cc1 -23.2%
COc1ccc2sc(N(Cc3cccnc3)C(=O)c3ccc4c(c3)OCCO4)nc2c1 -20.4%
CCc1ccc(S(=O)(=O)N(C(=O)c2ccncc2)c2ccc3oc(C)c(C(=O)OC)c3c2)cc1 -86.8%
COc1cccc(Cn2c(Oc3cc(C)cc(C)c3)nc3c2c(=O)n(C)c(=O)n3C)c1 -15.7%
COc1ccc(CC(=O)N2CCc3cc(OC)c(OC)cc3C2COc2cc(C)cc(C)c2)cc1OC (configuration not stated) -19%
Cc1nn(S(=O)(=O)c2ccc(Br)cc2)c(C)c1S(=O)(=O)N1CCCCCC1 -4.02%
CCOC(=O)c1ccc(N2C(=O)c3n[nH]c(-c4ccco4)c3C2c2ccc(C)cc2)cc1 (configuration not stated) -58.8%
Cc1cc(C)cc(NC(=O)CCS(=O)(=O)c2cccc3nsnc23)c1 -9.56%
CC(=O)c1ccc(NS(=O)(=O)c2cccc(S(=O)(=O)c3ccc(Cl)cc3)c2)cc1 -33.1%
CCc1ccc(N(CC)C(=O)c2cc3c(=O)oc4ccc(C)cc4c3s2)cc1 -4.01%
Cc1cccc(C)c1Nc1nn2c(=O)c3cc4c(cc3nc2s1)OCO4 -10.2%
Cc1cccc(NC(=O)CSc2ccc(-c3ccccn3)nn2)c1 -14.8%
COc1ccc(-n2nc(C(=O)N3CCCC(C)C3)c3c4ccccc4n(C)c3c2=O)cc1Cl (configuration not stated) -8.57%
CCOC(=O)c1ccc(NC(=O)CSc2c3c(nc4cc(Cl)ccc24)CCCC3)cc1 -12.9%
COc1cc(OC)c(NC(=O)CCCn2nc(C)c3c(C)n(-c4ccccc4)nc3c2=O)cc1Cl -17.5%
CCN(CC)c1nc2ccccc2nc1C(=O)Nc1cc(OC)c(OC)c(OC)c1 -16.1%
O=C(NC1CC(=O)N(c2ccccc2)C1)c1ccc(S(=O)(=O)N2CCCCC2)cc1 (configuration not stated) -24.5%
Cc1nn2c(C)c(C(=O)NCc3ccco3)cnc2c1-c1ccccc1 -12.5%
Cc1nn(C(=O)c2ccc(Cl)cc2)c(C)c1S(=O)(=O)N1CCCCCC1 -13.3%
